# Publication PMC6919601, “Identification of Plasmodium dipeptidyl aminopeptidase allosteric inhibitors by high throughput screening” (PLoS ONE, 2019)
# Screen size: about 110,000 compounds; about 230 (0.21%) showed an effect of 50% or more. The list shows a part of the results.
# Molecular target: DPAP1 (Plasmodium falciparum, UniProt Q8IIJ9)
# Test: primary screen, percent inhibition; read by cleavage of a fluorogenic dipeptide substrate; higher = more effect of the substance
# Parameters: species or system P. falciparum D10 trophozoite lysates; single well
# 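Also: 30 min substrate incubation versus DMSO and 10 µM JCP410 controls.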
# Chain of DPAP1 (Q8IIJ9 whole entry, looked up): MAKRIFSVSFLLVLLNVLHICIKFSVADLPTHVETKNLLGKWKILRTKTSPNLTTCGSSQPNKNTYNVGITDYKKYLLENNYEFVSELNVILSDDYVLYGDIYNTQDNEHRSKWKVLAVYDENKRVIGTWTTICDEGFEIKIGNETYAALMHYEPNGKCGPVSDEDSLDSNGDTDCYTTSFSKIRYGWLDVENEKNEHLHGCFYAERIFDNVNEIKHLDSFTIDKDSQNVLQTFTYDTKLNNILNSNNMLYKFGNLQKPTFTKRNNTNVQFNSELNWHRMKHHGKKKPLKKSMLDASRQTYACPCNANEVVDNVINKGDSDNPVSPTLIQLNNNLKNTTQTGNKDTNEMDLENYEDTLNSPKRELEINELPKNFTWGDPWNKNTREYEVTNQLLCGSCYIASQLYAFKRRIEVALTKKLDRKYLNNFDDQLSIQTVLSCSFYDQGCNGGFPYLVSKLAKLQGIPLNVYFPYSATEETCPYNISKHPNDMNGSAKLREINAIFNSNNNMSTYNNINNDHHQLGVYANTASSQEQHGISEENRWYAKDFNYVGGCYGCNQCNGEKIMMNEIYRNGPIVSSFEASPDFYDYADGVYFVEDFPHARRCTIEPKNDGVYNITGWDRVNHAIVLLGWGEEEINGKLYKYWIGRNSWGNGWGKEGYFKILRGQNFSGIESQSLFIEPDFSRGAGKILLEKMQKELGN
row,Compound,% Inhibition @ 10 uM
1,O=C(N1CCN(c2ccc([N+](=O)[O-])cc2)CC1)C12CC3CC(CC(C3)C1)C2,-2.55%
2,COc1ccccc1C1/C(=C(\O)OC(C)C)C(C)=Nc2nnnn21 (stereo not shown),-3.53%
3,Cn1c2ccccc2c2cc(C(O)(CC(=O)c3ccccc3)C(F)(F)F)ccc21 (stereo not shown),-6.27%
4,CC(C)(C)Nc1ncnc2c1cnn2Cc1ccccc1,4.66%
5,Cc1ccc(N2C(=O)C(NC(=O)c3ccccc3)(C(F)(F)F)C3=C2CC(C)(C)CC3=O)cc1 (stereo not shown),-10.7%
6,CCOc1cc2c(cc1OCC)C(c1cccc(OC)c1OC)NCC2 (stereo not shown),2.49%
7,Cc1c(C(=O)NCc2ccccc2)oc2c1C(=O)CCC2,-3.34%
8,CCOC(=O)C1=C(N)c2ccccc2CC1C(C)C (stereo not shown),4.42%
9,CCCCn1c(CCC(=O)O)ccc1-c1ccc(C)cc1,-0.0626%
10,CCC(C)NC(=O)c1cc2sc(Cl)cc2n1CC (stereo not shown),-6.68%
11,O=C(NC(=S)N1CCOCC1)c1ccccc1C(=O)OCC(F)(F)F,-1.5%
12,C=CCNc1cc(=O)n(Cc2ccccc2)c(=O)[nH]1,2.4%
13,O=C1CSC(c2ccc(Br)cc2)N1c1nc2ccccc2s1 (stereo not shown),-0.222%
14,CCn1c(CN2CC(C)OC(C)C2)nc2c1c(=O)n(C)c(=O)n2C (stereo not shown),-0.499%
15,Cc1sc(NC(=O)c2ccc(COc3ccc(F)cc3)o2)nc1-c1ccccc1,3.72%
16,Cc1ccc2c(c1)cc1c(=O)n(CC(=O)NCc3ccc(F)cc3)nc(C)n12,3.29%
17,CCC(C(=O)Nc1c2c(nn1-c1ccccc1C)CS(=O)(=O)C2)c1ccccc1 (stereo not shown),-1.75%
18,NC(=O)c1c(NC(=O)c2cc(=O)c3cc(Cl)ccc3o2)sc2c1CCCC2,-3.24%
19,CCOC(=O)c1c(C)oc2ncnc(N3CCCC3)c12,6.36%
20,O=C(NCc1ccc2c(c1)OCO2)C(=O)NCC(c1cccnc1)N1CCOCC1 (stereo not shown),-5.6%
21,Cn1c(CNC23CC4CC(CC(C4)C2)C3)c(-c2ccccc2)c2cc([N+](=O)[O-])ccc21,1.24%
22,Cc1cc(=O)n2nc(N3CCCC(C(=O)NC(C)C45CC6CC(CC(C6)C4)C5)C3)sc2n1 (stereo not shown),-0.281%
23,CC(C)(C)Nc1nc(Oc2ccc(CC(N)=O)nn2)nc(N2CCOCC2)n1,-1.31%
24,CCOc1cc(-c2cc(N)n(S(=O)(=O)c3ccc(F)c(C)c3)n2)cc(OCC)c1OCC,7.21%

row,Compound,% Inhibition @ 10 uM
1,CC(C)Nc1nc(N2CCOCC2)nc(N(c2ccccc2)c2ccccc2)n1,5.77%
2,CCOC(=O)c1c(C)[nH]c(C)c1S(=O)(=O)N(C)CC(=O)NCc1ccc2c(c1)OCO2,0.359%
3,O=C(NCCSc1nnnn1-c1ccccc1)c1ccc(Cl)cc1Cl,-1.11%
4,COc1c(Cl)cc(Cl)cc1-c1nnc2ccc3ccccc3n12,1.13%
5,COc1ccccc1OCc1cccc(C(=O)N2N=C(C(F)F)CC2(O)C(F)F)c1 (stereo not shown),-4.72%
6,COc1ccc(Br)cc1S(=O)(=O)NC1CC(C)(C)NC(C)(C)C1,-4.02%
7,CCn1nccc1C(=O)Nc1ccn(Cc2c(F)c(F)cc(F)c2F)n1,0.385%
8,CCn1c(O)c(C2=NCCCCC2)c2ccccc21,0.266%
9,N#CCNC(=O)[C@H](CSCc1ccccc1)NC(=O)c1cc2ccccc2o1,-6.98%
10,O=S(=O)(Nc1ccc(S(=O)(=O)Nc2cccc3ccccc23)cc1)c1ccc(Cl)cc1,7.71%
11,COc1cc(OC)cc(C(=O)NC2CCC(NC(=O)c3cc(OC)cc(OC)c3)CC2)c1 (stereo not shown),-5.6%
12,COC(=O)c1c(C)oc2ccc(OCc3cccc(F)c3)cc12,3.04%
13,O=Cc1cn(CC(=O)N2CCCC2)c2ccccc12,2.35%
14,CCOc1cccc(C(=O)Nc2nn3c(-c4ccccc4C)nnc3s2)c1,-3.73%
15,CCc1ccc(OCC(=O)Nc2ccc(S(=O)(=O)Nc3cc(C)on3)cc2)c(Br)c1,11.6%
16,CN(CCCNS(=O)(=O)c1ccc(-c2cc(C(F)(F)F)no2)s1)Cc1ccccc1,-0.342%
17,COc1ccc(/C=N/c2sc3c(c2C#N)CCC(C)C3)cc1OC (stereo not shown),-0.597%
18,CCC[C@H](NC(=O)C1(NC(=O)OC(C)(C)C)CCCCC1)C(=O)c1nnc(-c2ccco2)o1,-6.46%
19,CCOC(=O)N1CCN(C(=O)c2cn(C)c(=O)c3c2c2ccccc2n3C)CC1,4.5%
20,Cc1ccc(CS(=O)(=O)CCC(=O)NCCN(C)Cc2ccccc2)cc1,1.62%
21,CC1=NN(C(=O)c2ccccc2N)C(O)(c2ccccc2)C1 (stereo not shown),-3.04%
22,CCOC(=O)c1c(C)[nH]c(C)c1S(=O)(=O)N1CCN(C(=O)OCC)CC1,-1.06%
23,O=C(NCc1ccccc1Cl)C1=CSCCO1,0.0882%
24,COc1ccc(Br)cc1/C=c1/sc2nc(=O)c(Cc3ccc(F)cc3)nn2c1=O,1.23%

row,Compound,% Inhibition @ 10 uM
1,CCCCP(=O)(O)c1ccccc1,-0.771%
2,CCOC(=O)N1CCN(Cc2nc3c(c(=O)n(C)c(=O)n3C)n2CCC(C)C)CC1,-5.1%
3,COC(=O)/C=C/c1ccc(OC)c(OC)c1,3.39%
4,Cc1ccc(C(=O)Nc2cccc3cccnc23)cc1,-4.02%
5,c1ccc(Cc2nc3sc4c(c3c3nnnn23)CCCC4)cc1,1.52%
6,COC(=O)c1ccc(OCC2c3cc(OC)c(OC)cc3CCN2C(=O)CCc2ccccc2)cc1 (stereo not shown),1.02%
7,CC(NC(=O)COc1nsnc1N1CCOCC1)c1ccccc1 (stereo not shown),2.99%
8,CC(C)CCn1c(CN2CCN(Cc3ccccc3)CC2)nc2c1c(=O)n(C)c(=O)n2C,0.317%
9,CN1C(=O)c2ccccc2C(C(=O)N2CCCCCC2)C1c1c[nH]c2ccccc12 (stereo not shown),2.93%
10,CCOC(=O)c1cc(-c2ccccc2)sc1NC(=O)/C(C#N)=C/c1ccc(OC)cc1,-2.87%
11,CCN1CCC(NCC2CCCO2)CC1 (stereo not shown),-1.81%
12,O=C(c1oc(=O)c2ccccc2c1-c1ccccc1)N1CCCCCC1,3.53%
13,CCCCN(C)C(=O)C1c2ccccc2C(=O)N(CCOC)C1c1c[nH]c2ccccc12 (stereo not shown),5.62%
14,C=CCNC(=O)c1cc(-c2ccc(OCC)cc2)nc2ccccc12,0.0265%
15,O=C(Nc1ccc(Cl)cc1C(=O)NCCCCO)c1ccco1,-5.31%
16,N=C1/C(=C\c2ccc(SCc3ccco3)o2)C(=O)N=C2SC(c3ccccc3)=NN12,11.2%
17,COc1cccc(OCc2cc(C3C(C#N)=C(N)OC4=C3C(=O)CC(C)(C)C4)ccc2OC)c1 (stereo not shown),1.35%
18,COc1ccc(-c2cc(C(F)(F)F)nc(SCC(=O)Nc3cccnc3)n2)cc1OC,44.1%
19,COC(=O)c1ccc(CSc2ncnc3c2sc2nc(N4CCOCC4)c4c(c23)CCCC4)o1,1.31%
20,O=C1CC(c2ccc(Cl)cc2Cl)C2=C(CC(c3ccccc3Cl)CC2=O)N1 (stereo not shown),6.91%
21,COc1ccc(/C=C(\NC(=O)c2ccc(OC)cc2)C(=O)NC(C)C(=O)O)cc1 (stereo not shown),-2.87%
22,O=C(c1ccc2nc(N3CCOCC3)sc2c1)N1CCN(C(=O)c2ccco2)CC1,1.03%
23,O=C(C1=C(O)C(=O)N(c2ccccc2)C1c1ccc2c(c1)OCO2)c1ccccc1 (stereo not shown),2.22%
24,NC(=O)c1c(NC(=O)c2ccc3c(c2)OCO3)sc2c1CCCCCC2,0.316%

row,Compound,% Inhibition @ 10 uM
1,COc1ccc2nc(NC(=O)C(Cc3ccccc3)N3C(=O)c4ccccc4C3=O)sc2c1 (stereo not shown),-3.14%
2,Cc1ccc(Nc2[nH]nc(C)c2[N+](=O)[O-])c(C)c1,3.31%
3,COc1ccc(N2C(=N)S/C(=C\c3ccc(-c4ccc5c(c4)C(=O)NC5=O)o3)C2=O)cc1,0.147%
4,CN1CCN(S(=O)(=O)c2ccc(-c3ccc(Cl)cc3)cc2)CC1,-0.123%
5,COCCNC(=S)N(CCc1c(C)[nH]c2ccc(F)cc12)Cc1cc(OC)c(OC)c(OC)c1,-0.58%
6,CC(=O)C(C(=O)c1ccccc1)C1c2ccccc2Oc2ccccc21 (stereo not shown),0.685%
7,COc1ccc(/C=C2/SC(=O)N(CC(=O)NC(C)(C)C)C2=O)cc1OC,-2.99%
8,O=S(=O)(NCCCN1CCOCC1)c1cc(Br)c(Br)s1,-0.458%
9,CCOc1cc(-c2nc3c(=O)n(C)c(=O)nc-3n(C)n2)ccc1OC(C)C,-6.5%
10,CC1(C)OC(=O)C(=Cc2ccc(-c3ccccc3)o2)C(=O)O1,3.25%
11,O=S(=O)(c1ccc(Cl)cc1Br)N1CCOCC1,4.38%
12,CCN(c1cccc(C)c1)S(=O)(=O)c1cnc(Cl)c(Br)c1,3.24%
13,CSc1ncc(C(=O)NCCCN2CCc3ccccc3C2)c(C)n1,2.25%
14,Cc1ccc(C(=O)C2=C(O)C(=O)N(CCCn3ccnc3)C2c2cccc(F)c2)cc1 (stereo not shown),-3.23%
15,CCOc1cc(/C=C2/C(=N)N3OC(C)=CC3=NC2=O)ccc1OCc1ccccc1Cl,-3.23%
16,O=C(NCCc1ccc(F)cc1)C1c2ccccc2Oc2ccccc21,-3.14%
17,O=C(NCc1cccc(Cl)c1)C1CCN(c2nc3ccccc3n3cccc23)CC1,3.44%
18,CCOc1cc(/C=C2/NC(=O)N(Cc3ccc(C)cc3)C2=O)ccc1OC,5.66%
19,O=C(/C=C/c1cccc([N+](=O)[O-])c1)N1CCOCC1,1.35%
20,COc1cccc2c1cc1c(=O)n(CC(=O)NCC(C)c3ccccc3)nc(C)n12 (stereo not shown),-1.7%
21,Cc1nn(-c2ccccc2)c(-n2cccc2)c1C(=O)NCC1CCCO1 (stereo not shown),0.137%
22,COc1ccc(Cl)cc1-n1nnc(S(=O)(=O)c2ccc(C)cc2)c1C,-7.62%
